Results taken from patent US10214765B2, “Cell-permeable probes for identification and imaging of sialidases” (Academina Sinica, priority 2012, dated 2019).

Experiments:
[1] = target: nanH (recombinant sialidase from C. perfringens) (Clostridium perfringens, UniProt P10481); test: biochemical
[2] = target: NA (influenza neuraminidase from A/WSN/1933/H1N1) (Influenza A virus, UniProt P03470); format: biochemical, influenza virus A/WSN/1933/H1N1; settings: MUNANA substrate
[3] = target: nanI (recombinant sialidase from C. perfringens) (Clostridium perfringens, UniProt A0A0H2YQR1); test: biochemical
[4] = target: nanJ (recombinant sialidase from C. perfringens) (Clostridium perfringens, UniProt A0A0H2YT71); test: biochemical
Neu3 = target: T1, Neu3 (Homo sapiens, UniProt Q9UQ49); format: binding
T1 construct: FLAG (N); expressed in transfected cells; host or cells: 293T
T1 sequence (Q9UQ49 1-428): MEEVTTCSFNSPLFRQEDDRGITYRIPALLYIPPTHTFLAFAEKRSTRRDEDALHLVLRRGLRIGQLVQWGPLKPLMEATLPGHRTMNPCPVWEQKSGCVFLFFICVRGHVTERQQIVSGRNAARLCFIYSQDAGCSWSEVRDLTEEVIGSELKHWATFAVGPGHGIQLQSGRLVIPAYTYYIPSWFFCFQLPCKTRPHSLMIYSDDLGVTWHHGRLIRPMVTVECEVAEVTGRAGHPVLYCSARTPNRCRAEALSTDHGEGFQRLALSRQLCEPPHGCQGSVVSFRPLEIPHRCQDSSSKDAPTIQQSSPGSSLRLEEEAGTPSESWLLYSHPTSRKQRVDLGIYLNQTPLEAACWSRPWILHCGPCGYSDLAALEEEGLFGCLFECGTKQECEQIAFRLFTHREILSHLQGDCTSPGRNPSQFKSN

[5] = Cell permeability of the probes
[6] = target: T2, Neu2 (recombinant sialidase from human) (Homo sapiens, UniProt Q9Y3R4); test: biochemical
T2 construct: FLAG (N); expressed in transfected cells; host or cells: 293T
T2 sequence (Q9Y3R4 whole entry): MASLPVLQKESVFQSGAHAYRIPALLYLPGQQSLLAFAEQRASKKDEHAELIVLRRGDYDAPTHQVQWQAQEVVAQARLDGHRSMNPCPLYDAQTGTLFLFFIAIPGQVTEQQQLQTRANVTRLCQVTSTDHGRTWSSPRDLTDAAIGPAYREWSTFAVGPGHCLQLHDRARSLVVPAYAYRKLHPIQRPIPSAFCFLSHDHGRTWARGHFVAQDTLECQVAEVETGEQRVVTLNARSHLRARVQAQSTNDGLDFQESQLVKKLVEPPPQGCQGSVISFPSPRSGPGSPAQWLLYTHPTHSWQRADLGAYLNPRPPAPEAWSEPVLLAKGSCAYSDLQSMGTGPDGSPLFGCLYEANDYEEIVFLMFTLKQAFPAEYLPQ

bacterial sialidases = format: binding
four human sialidases = format: binding
Neu1 = target: T3, Neu1 (Homo sapiens, UniProt Q99519); format: binding; settings: pH 9
T3 construct: FLAG (N); FLAG (C); expressed in transfected cells; host or cells: 293T

[7] = tested on: influenza virus (NA), bacteria (nanA, nanB, nanC, nanJ, nanI and nanH) and human (Neu1, Neu2, Neu3 and Neu4) sialidases; format: biochemical; settings: all tested sialidases
[8] = tested on: Neu1 activity in fibroblasts (D551, GM02921, GM02922); test: Live cell sialidase labeling of normal and sialidosis fibroblasts; format: cell-based, human; settings: more severe sialidosis (GM02921) fibroblasts versus milder sialidosis (GM02922) cells; FIG. 6A
[9] = target: Neu1 expressing 293T cells (Homo sapiens, UniProt Q99519); test: Confocal co-localization of PDFSA sialidase labeling and flag staining; settings: PDFSA 0.2 mM, 15 h
[10] = tested on: Neu4 expressing 293T cells; test: as above; format: cell-based, human; settings: PDFSA 0.2 mM, 15 h

Sequence of UniProt P10481 (P10481 whole entry, looked up): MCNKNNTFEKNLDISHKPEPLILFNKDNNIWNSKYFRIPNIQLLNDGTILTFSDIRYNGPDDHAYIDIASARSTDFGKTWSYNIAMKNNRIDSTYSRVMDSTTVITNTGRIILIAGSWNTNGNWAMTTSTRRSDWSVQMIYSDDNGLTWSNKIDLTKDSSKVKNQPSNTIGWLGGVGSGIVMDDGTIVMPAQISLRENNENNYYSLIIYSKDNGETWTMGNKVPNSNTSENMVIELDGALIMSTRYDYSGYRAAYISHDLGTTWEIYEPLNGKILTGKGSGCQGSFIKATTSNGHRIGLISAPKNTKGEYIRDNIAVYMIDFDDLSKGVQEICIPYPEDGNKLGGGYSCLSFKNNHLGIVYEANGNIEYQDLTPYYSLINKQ
Sequence of UniProt P03470 (P03470 whole entry): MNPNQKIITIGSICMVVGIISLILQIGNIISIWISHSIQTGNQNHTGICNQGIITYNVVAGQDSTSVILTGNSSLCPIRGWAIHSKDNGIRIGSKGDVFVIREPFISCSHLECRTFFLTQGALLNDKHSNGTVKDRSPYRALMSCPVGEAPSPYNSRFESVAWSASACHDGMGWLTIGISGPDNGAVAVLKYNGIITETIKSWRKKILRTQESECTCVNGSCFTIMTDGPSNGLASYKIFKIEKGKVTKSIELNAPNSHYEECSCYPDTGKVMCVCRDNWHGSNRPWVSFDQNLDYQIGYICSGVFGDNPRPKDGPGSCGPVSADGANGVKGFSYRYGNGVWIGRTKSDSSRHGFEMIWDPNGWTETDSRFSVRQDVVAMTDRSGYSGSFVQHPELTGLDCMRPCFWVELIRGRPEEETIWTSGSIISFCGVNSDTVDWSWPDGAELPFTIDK

Compound	IC50 [1] [µM]	IC50 [2] [µM]	IC50 [3] [µM]	IC50 [4] [µM]	IC50 [6] [µM]	other results
CC(=O)N[C@H]1[C@H]([C@H](O)[C@H](O)CO)OC(C(=O)O)=C[C@@H]1O [DANA, 2,3-didehydro-2-deoxy-N-acetylneuraminic acid]	15.7	5.4 ± 1.6	1.9	4.5		
C#CCCC(=O)NC1C(O)C(F)C(F)(C(=O)O)OC1[C@H](O)[C@H](O)CO (stereo partly drawn) [DFSA-5-yne, 5-(Pent-4-ynamido)-2,3,5-trideoxy-3-fluoro-D-erythro-β-L-manno-non-2-ulopyranosylonic fluoride]	354 ± 146	51 ± 24	25.5 ± 0.6	34.9 ± 4.2	26.1 ± 12.8	sialidase labeling (Neu3; pH 7): weak labeling; sialidase labeling (Neu3; pH 9): poorly labeled; cell permeability [5]: poorly permeable; fluorosialosyl-enzyme adduct formation (bacterial sialidases): formed DFSA adducts; sialidase labeling (four human sialidases): specific DFSA labeling; sialidase labeling (Neu1): poorly labeled; half maximal inhibitory concentrations [7]: micro- to submicromolar
CCOC(=O)C1=C[C@@H](OC(CC)CC)[C@H](NC(C)=O)[C@@H](N)C1 [Oseltamivir]	> 100		> 100	> 100	> 100	
C#CCCC(=O)NC1C(OC(C)=O)C(F)C(F)(C(=O)OC)OC1[C@H](OC(C)=O)[C@@H](COC(C)=O)OC(C)=O (stereo partly drawn) [PDFSA-5-yne, Methyl 5-(pent-4-ynamido)-4,7,8,9-tetra-O-acetyl-2,3,5-trideoxy-3-fluoro-D-erythro-β-L-manno-non-2-ulopyranosylonate fluoride]						cell permeability ([5]; not told): enhances cell permeable properties; sialidase labeling [8]: significantly reduced; co-localization of sialidase activity and sialidase protein [9]: ~85%; inhibition of sialidases ([7]; data not shown): did not inhibit; co-localization of sialidase activity and sialidase protein [10]: 68%
CC(=O)N[C@H]1[C@H]([C@H](O)[C@H](O)CO)OC(C(=O)O)=C[C@@H]1N=C(N)N [Zanamivir]	83		77	> 100		

Read-outs that look alike come from different tables or passages of the source.
